The text below walks through data of a collection of fitness landscapes (doi:10.1126/science.1257360).

Some of the results follow.

B1: PhoQ; a variant is named by its letters at X, in order, P23837 (parent)
chain: MKKLLRLFFPLSLRVRFLLATAAVVLVLSLAYGMVALIGYSVSFDKTTFRLLRGESNLFYTLAKWENNKLHVELPENIDKQSPTMTLIYDENGQLLWAQRDVPWLMKMIQPDWLKSNGFHEIEADVNDTSLLLSGDHSIQQQLQEVREDDDDAEMTHSVAVNVYPATSRMPKLTIVVVDTIPVELKSSYMVWSWFIYVLSANLLLVIPLLWVAAWWSLRPIEALAKEVRELEEHNRELLNPATTRELTSLVRNLNRLLKSERERYDKYRTTLTDLTHSLKTPLXXLQXXLRSLRSEKMSVSDAEPVMLEQISRISQQIGYYLHRASMRGGTLLSRELHPVAPLLDNLTSALNKVYQRKGVNISLDISPEISFVGEQNDFVEVMGNVLDNACKYCLEFVEISARQTDEHLYIVVEDDGPGIPLSKREVIFDRGQRVDTLRPGQGVGLAVAREITEQYEGKIVAGESMLGGARMEVIFGRQHSAPKDE

In this assay the parent is B1. Briefly: enrichment ratio after two sorts for PhoP signalling (ratio (wild type AVST 3.29)); higher = more functional. As to conditions: with PhoP (E. coli).
With KNEC, the enrichment ratio is no more than 0.25.

In the case of PDVG, the enrichment ratio was no more than 0.25. On to EFRQ, for which the enrichment ratio was no more than 0.25. Turning to VVNS, the enrichment ratio is no more than 0.25.

For the variant SPFT, the enrichment ratio is no more than 0.25.

With WQLG, the enrichment ratio was no more than 0.25. As for FGLG, the enrichment ratio is 5.82. For the variant IRIQ, the enrichment ratio is no more than 0.25. With RNQL, the enrichment ratio was no more than 0.25. The value for TRMD was no more than 0.25; that for YGYQ was no more than 0.25; that for FENV was no more than 0.25. Next, PNMM: no more than 0.25. The value for GNNR was no more than 0.25. For the variant TEHR, the enrichment ratio is no more than 0.25.

As for PTNW, the enrichment ratio is no more than 0.25. The value for GWFH was no more than 0.25.

Take AWAT: the enrichment ratio is no more than 0.25. Next, NFQH: no more than 0.25; TDIC: 14.4. Consider TLMA, for which the enrichment ratio is no more than 0.25. For the variant QLLA, the enrichment ratio was no more than 0.25. SDQM: the enrichment ratio was no more than 0.25.

On to NLMV, for which the enrichment ratio is no more than 0.25. Next, EIRL: no more than 0.25; YEKH: no more than 0.25. The value for AIWW was no more than 0.25; that for YDNK was no more than 0.25.

Regarding EGTQ, the enrichment ratio was no more than 0.25. For VWWY, the enrichment ratio is no more than 0.25. Next, ACPN: no more than 0.25. In the case of TSKW, the enrichment ratio is no more than 0.25.

Consider PNDT, for which the enrichment ratio is no more than 0.25. Turning to LEKM, the enrichment ratio was no more than 0.25. Turning to TSQA, the enrichment ratio was determined as 7.54. The value for AGIP was no more than 0.25; that for QCCA was no more than 0.25. The value for YVWC was no more than 0.25; that for NFTM was no more than 0.25. As for GNAW, the enrichment ratio was no more than 0.25. As to IVCE, the enrichment ratio is no more than 0.25. In the case of WFCA, the enrichment ratio is no more than 0.25.

LWNG: the enrichment ratio is no more than 0.25. Regarding WTSN, the enrichment ratio was no more than 0.25.

As for EYIY, the enrichment ratio is no more than 0.25. Next, HSQL: 3.85.

Turning to TSAT, the enrichment ratio was found to be 11.6. FHLF: the enrichment ratio is no more than 0.25. With EHSP, the enrichment ratio was no more than 0.25. Regarding MARE, the enrichment ratio is no more than 0.25.

In the case of IQEV, the enrichment ratio was no more than 0.25.

In the case of MCGK, the enrichment ratio was no more than 0.25. As to ESPS, the enrichment ratio was no more than 0.25.

Take QMEG: the enrichment ratio is no more than 0.25. The value for WVWF was no more than 0.25. Next, LNMS: no more than 0.25; NIYR: no more than 0.25; THVW: no more than 0.25. Regarding NLDT, the enrichment ratio was no more than 0.25. Next, SHEI: no more than 0.25; QILY: no more than 0.25.

With MVVR, the enrichment ratio was no more than 0.25.

Turning to KSLR, the enrichment ratio is no more than 0.25. For the variant RDTL, the enrichment ratio is no more than 0.25. Regarding AEYF, the enrichment ratio was no more than 0.25. Next, HQHY: no more than 0.25; ATWN: no more than 0.25; NTLS: no more than 0.25. With RLSM, the enrichment ratio is no more than 0.25.

As for VFFD, the enrichment ratio is no more than 0.25. Next, LHLD: no more than 0.25; NHGS: no more than 0.25; WNAK: no more than 0.25. Next, HDIS: no more than 0.25; CFCC: no more than 0.25. Next, IEQK: no more than 0.25. On to LESV, for which the enrichment ratio was no more than 0.25. Take QVFD: the enrichment ratio was no more than 0.25. The value for SFMT was no more than 0.25; that for VSHN was no more than 0.25. As for SMIC, the enrichment ratio is no more than 0.25. As to DLAD, the enrichment ratio is no more than 0.25. Next, ILHM: no more than 0.25; TGHW: no more than 0.25; MRSL: no more than 0.25. Consider KPTR, for which the enrichment ratio was no more than 0.25. On to FGLK, for which the enrichment ratio turned out to be 1.96. The value for NWAY was no more than 0.25; that for RDYY was no more than 0.25; that for QQPY was no more than 0.25. Turning to AVAC, the enrichment ratio amounted to 4.94. Next, QTVM: no more than 0.25. The value for QYTS was no more than 0.25; that for IGTS was no more than 0.25; that for RLIS was no more than 0.25. Regarding VVWK, the enrichment ratio was no more than 0.25.

In the case of HILA, the enrichment ratio was no more than 0.25.

Turning to WSQV, the enrichment ratio is no more than 0.25. For the variant SKTE, the enrichment ratio is no more than 0.25. ACYT: the enrichment ratio is no more than 0.25.

For the variant TIIH, the enrichment ratio is no more than 0.25. As to PHPH, the enrichment ratio is no more than 0.25. In the case of VLCC, the enrichment ratio was no more than 0.25. Take ESAV: the enrichment ratio is 2.02. On to YDNG, for which the enrichment ratio was no more than 0.25. The value for DGDT was no more than 0.25; that for RCPG was no more than 0.25; that for DDVD was no more than 0.25. In the case of FKNA, the enrichment ratio is no more than 0.25. Next, SAHD: no more than 0.25; YGIQ: no more than 0.25; MATK: no more than 0.25. Take SFAL: the enrichment ratio is no more than 0.25. In the case of GLGE, the enrichment ratio was no more than 0.25. As to WTKG, the enrichment ratio was no more than 0.25. HWVL: the enrichment ratio is no more than 0.25. For the variant NSIQ, the enrichment ratio is no more than 0.25. Next, RDQR: no more than 0.25; PDDL: no more than 0.25; SLTF: 12.2. With VRIC, the enrichment ratio is no more than 0.25. Next, GWGY: no more than 0.25; TQTC: 18.9. As to DRVA, the enrichment ratio was no more than 0.25. With GAPP, the enrichment ratio is no more than 0.25. The value for KYRY was no more than 0.25; that for YYHW was no more than 0.25; that for SEWN was 7.57.

Regarding NMKE, the enrichment ratio is no more than 0.25. The value for HNKD was no more than 0.25; that for DHLP was no more than 0.25. On to PAQF, for which the enrichment ratio was no more than 0.25. The value for MLAT was no more than 0.25.

Consider VTHN, for which the enrichment ratio is no more than 0.25.

Regarding YLVK, the enrichment ratio is no more than 0.25. The value for IMNQ was no more than 0.25; that for ISMD was no more than 0.25; that for VFEG was 0.318. Regarding PARS, the enrichment ratio was no more than 0.25. The value for FACI was 0.59; that for KQAN was no more than 0.25. The value for QIMH was no more than 0.25. Consider SCDK, for which the enrichment ratio is no more than 0.25. Next, AIFV: no more than 0.25. DTWC: the enrichment ratio was no more than 0.25. Next, VPAN: no more than 0.25. On to LYFW, for which the enrichment ratio is no more than 0.25. The value for MEGL was 6.83; that for WGRK was no more than 0.25; that for EKFM was no more than 0.25. For QYTW, the enrichment ratio was no more than 0.25. For the variant LICN, the enrichment ratio is no more than 0.25.

Turning to MIDL, the enrichment ratio was 3.03.
